# This is one part of the list.
# B1: Gal 9 (Homo sapiens), O00182 (protein)
# chain: MAFSGSQAPYLSPAVPFSGTIQGGLQDGLQITVNGTVLSSSGTRFAVNFQTGFSGNDIAFHFNPRFEDGGYVVCNTRQNGSWGPEERKTHMPFQKGMPFDLCFLVQSSDFKVMVNGILFVQYFHRVPFHRVDTISVNGSVQLSYISFQNPRTVPVQPAFSTVPFSQPVCFPPRPRGRRQKPPGVWPANPAPITQTVIHTVQSAPGQMFSTPAIPPMMYPHPAYPMPFITTILGGLYPSKSILLSGTVLPSAQRFHINLCSGNHIAFHLNPRFDENAVVRNTQIDNSWGSEERSLPRKMPFVRGQSFSVWILCEAHCLKVAVDGQHLFEYYHRLRNLPTINRLEVGGDIQLTHVQT
# Key:
# Assay in all cases: glycan array binding signal (z-score within array); higher = stronger binding
# Settings in all cases: glycan notation: IUPAC condensed, linker removed
# [1] = target: GlcNAc(b1-2)[GlcNAc(b1-6)]Man(a1-6)[GlcNAc(b1-2)Man(a1-3)]Man(b1-4)GlcNAc(b1-4)[Fuc(a1-6)]GlcNAc
# Method in brief: (§1)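 Glycan array binding is given as a within-array Z-score, which can be read as non-binding when negative. The arrays, 3228 of them, came from the Consortium for Functional Glycomics database and were retained only where the protein sequence was available. Z-scores were averaged across arrays of the same protein sequence at different concentrations or buffers and across linkers.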
# [2] = target: GlcNAc(b1-2)[GlcNAc(b1-6)]Man(a1-6)[GlcNAc(b1-2)Man(a1-3)][GlcNAc(b1-4)]Man(b1-4)GlcNAc(b1-4)GlcNAc
# Method in brief: as §1
# [3] = target: GlcNAc(b1-2)[GlcNAc(b1-6)]Man(a1-6)[GlcNAc(b1-4)][GlcNAc(b1-2)Man(a1-3)]Man(b1-4)GlcNAc(b1-4)GlcNAc
# Method in brief: as §1
# GlcNAc(b1-3)Fuc = target: GlcNAc(b1-3)Fuc
# Method in brief: as §1
# GlcNAc(b1-3)Gal = target: GlcNAc(b1-3)Gal
# Method in brief: as §1
# [4] = target: GlcNAc(b1-3)Gal(b1-3)GalNAc
# Method in brief: as §1
# GlcNAc(b1-3)Gal(b1-4)Glc = target: GlcNAc(b1-3)Gal(b1-4)Glc
# Method in brief: as §1
# [5] = target: GlcNAc(b1-3)Gal(b1-4)GlcNAc
# Method in brief: as §1
# [6] = target: GlcNAc(b1-3)Gal(b1-4)GlcNAc(b1-2)Man(a1-3)[GlcNAc(b1-3)Gal(b1-4)GlcNAc(b1-2)Man(a1-6)]Man(b1-4)GlcNAc(b1-4)GlcNAc
# Method in brief: as §1
# [7] = target: GlcNAc(b1-3)Gal(b1-4)GlcNAc(b1-2)Man(a1-3)[GlcNAc(b1-3)Gal(b1-4)GlcNAc(b1-2)Man(a1-6)]Man(b1-4)GlcNAc(b1-4)[Fuc(a1-6)]GlcNAc
# Method in brief: as §1
# [8] = target: GlcNAc(b1-3)Gal(b1-4)GlcNAc(b1-2)[GlcNAc(b1-3)Gal(b1-4)GlcNAc(b1-6)]Man(a1-6)[GlcNAc(b1-3)Gal(b1-4)GlcNAc(b1-2)Man(a1-3)]Man(b1-4)GlcNAc(b1-4)GlcNAc
# Method in brief: as §1
# [9] = target: GlcNAc(b1-3)Gal(b1-4)GlcNAc(b1-3)Gal(b1-4)GlcNAc
# Method in brief: as §1
# [10] = target: GlcNAc(b1-3)Gal(b1-4)GlcNAc(b1-3)Gal(b1-4)GlcNAc(b1-2)Man(a1-3)[GlcNAc(b1-3)Gal(b1-4)GlcNAc(b1-3)Gal(b1-4)GlcNAc(b1-2)Man(a1-6)]Man(b1-4)GlcNAc(b1-4)GlcNAc
# Method in brief: as §1
# [11] = target: GlcNAc(b1-3)Gal(b1-4)GlcNAc(b1-3)Gal(b1-4)GlcNAc(b1-2)Man(a1-3)[GlcNAc(b1-3)Gal(b1-4)GlcNAc(b1-3)Gal(b1-4)GlcNAc(b1-2)Man(a1-6)]Man(b1-4)GlcNAc(b1-4)[Fuc(a1-6)]GlcNAc
# Method in brief: as §1
# [12] = target: GlcNAc(b1-3)Gal(b1-4)GlcNAc(b1-3)Gal(b1-4)GlcNAc(b1-2)[GlcNAc(b1-3)Gal(b1-4)GlcNAc(b1-3)Gal(b1-4)GlcNAc(b1-6)]Man(a1-6)[GlcNAc(b1-3)Gal(b1-4)GlcNAc(b1-3)Gal(b1-4)GlcNAc(b1-2)Man(a1-3)]Man(b1-4)GlcNAc(b1-4)[Fuc(a1-6)]GlcNAc
# Method in brief: as §1
# [13] = target: GlcNAc(b1-3)Gal(b1-4)GlcNAc(b1-3)Gal(b1-4)GlcNAc(b1-3)Gal(b1-4)GlcNAc(b1-2)Man(a1-3)[GlcNAc(b1-3)Gal(b1-4)GlcNAc(b1-3)Gal(b1-4)GlcNAc(b1-3)Gal(b1-4)GlcNAc(b1-2)Man(a1-6)]Man(b1-4)GlcNAc(b1-4)GlcNAc
# Method in brief: as §1
# [14] = target: GlcNAc(b1-3)Gal(b1-4)GlcNAc(b1-3)Gal(b1-4)GlcNAc(b1-3)Gal(b1-4)GlcNAc(b1-2)Man(a1-3)[GlcNAc(b1-3)Gal(b1-4)GlcNAc(b1-3)Gal(b1-4)GlcNAc(b1-3)Gal(b1-4)GlcNAc(b1-2)Man(a1-6)]Man(b1-4)GlcNAc(b1-4)[Fuc(a1-6)]GlcNAc
# Method in brief: as §1
# [15] = target: GlcNAc(b1-3)Gal(b1-4)GlcNAc(b1-3)Gal(b1-4)GlcNAc(b1-3)Gal(b1-4)GlcNAc(b1-2)[GlcNAc(b1-3)Gal(b1-4)GlcNAc(b1-3)Gal(b1-4)GlcNAc(b1-3)Gal(b1-4)GlcNAc(b1-6)]Man(a1-6)[GlcNAc(b1-3)Gal(b1-4)GlcNAc(b1-3)Gal(b1-4)GlcNAc(b1-3)Gal(b1-4)GlcNAc(b1-2)Man(a1-3)]Man(b1-4)GlcNAc(b1-4)[Fuc(a1-6)]GlcNAc
# Method in brief: as §1
# [16] = target: GlcNAc(b1-3)Gal(b1-4)GlcNAc(b1-3)Gal(b1-4)GlcNAc(b1-3)Gal(b1-4)GlcNAc(b1-3)Gal(b1-4)GlcNAc(b1-2)Man(a1-3)[GlcNAc(b1-3)Gal(b1-4)GlcNAc(b1-3)Gal(b1-4)GlcNAc(b1-3)Gal(b1-4)GlcNAc(b1-3)Gal(b1-4)GlcNAc(b1-2)Man(a1-6)]Man(b1-4)GlcNAc(b1-4)GlcNAc
# Method in brief: as §1
binder,measurement,setting,value
B1,glycan array binding signal (z-score),[1],-0.277
same,glycan array binding signal (z-score),[2],-0.329
same,glycan array binding signal (z-score),[3],-0.268
same,glycan array binding signal (z-score),GlcNAc(b1-3)Fuc,-0.282
same,glycan array binding signal (z-score),GlcNAc(b1-3)Gal,-0.323
same,glycan array binding signal (z-score),[4],-0.271
same,glycan array binding signal (z-score),GlcNAc(b1-3)Gal(b1-4)Glc,0.028
same,glycan array binding signal (z-score),[5],-0.313
same,glycan array binding signal (z-score),[6],-0.006
same,glycan array binding signal (z-score),[7],-0.004
same,glycan array binding signal (z-score),[8],0.976
same,glycan array binding signal (z-score),[9],0.337
same,glycan array binding signal (z-score),[10],0.688
same,glycan array binding signal (z-score),[11],0.183
same,glycan array binding signal (z-score),[12],2.6
same,glycan array binding signal (z-score),[13],0.663
same,glycan array binding signal (z-score),[14],0.052
same,glycan array binding signal (z-score),[15],1.9
same,glycan array binding signal (z-score),[16],2.25

# Source: the supplement of paper PMC8728848
